# In PubChem BioAssay (Tox21):
# “And” between values parts separate entries of the source, which are not always exact repeats. Equal values may be shown once. The shares of active, inactive and inconclusive entries below differ from those in the screen. For some of these results: Potencies of inconclusive entries are doubtful fits and often do not repeat. A structure can be active in one record and inactive in another. The source made the active and inactive calls. Calls come from the whole dose curve; as a rule, active = well fitted curve in the direction sought with a large enough effect in the repeat runs; inconclusive = weak or mixed curves; inactive = no such curve, though single readings can be large; an effect the other way counts as inactive or inconclusive.
# How the values were obtained:
# [1] = Caspase-3/7 induction in HepG2 cells by small molecules, qHTS cell viability counter screen (AID 1346981); note: nearly all actives have a fitted effect of over 30% in size; note: potency is the fitted concentration of half-maximal effect
# In short: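 After a 5-hr attachment period at 37 C and 5% CO2, wild-type HepG2 cells received compounds in DMSO. Sixteen hours later CellTiter-Fluor was dispensed and the fluorescent signal quantified after a further hour.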
# [2] = target: Nuclear receptor subfamily 1 group I member 2 (Homo sapiens) (UniProt O75469); assay: Human pregnane X receptor (PXR) small molecule agonists, qHTS assay (AID 1346982); note: nearly all actives have a fitted effect of over 35% in size; note: potency is the fitted concentration of half-maximal effect; for activation: % is set by controls: 0 for no effect and ±100 for the full control effect
# In short: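 Tox21 qHTS; PXR-Luc HepG2; compounds pinned from DMSO; 24 hr, 37 C; ONE-Glo luciferase detection, 30 min room temperature.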
# [3] = target: Cytochrome P450 2D6 (Homo sapiens) (UniProt P10635); assay: Cytochrome P450 Family 2 Subfamily D Member 6 (CYP2D6) small molecule antagonists: luciferase reporter qHTS assay (AID 1671196); note: nearly all actives have a fitted effect of over 50% in size; note: potency is the fitted concentration of half-maximal effect
# In short: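 Room-temperature luminescent CYP2D6 activity assay: compound preincubated 10 min with enzyme–substrate mix, NADPH-initiated reaction 1 h, detection reagent 20 min before reading.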
# [4] = target: Cytochrome P450 2C19 (Homo sapiens) (UniProt P33261); assay: Cytochrome P450 Family 2 Subfamily C Member 19 (CYP2C19) small molecule antagonists: luciferase reporter qHTS assay (AID 1671197); note: nearly all actives have a fitted effect of over 65% in size; note: potency is the fitted concentration of half-maximal effect
# In short: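 Enzyme-substrate mix with proluciferin substrate (P450-Glo CYP2C19 system) preincubated with compounds 10 min at room temperature; NADPH regeneration solution added, 37C for 1 h; detection reagent stops reaction, luminescence read after 20 min. Ketoconazole positive control.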
# [5] = target: Nuclear receptor subfamily 1 group I member 2 (Homo sapiens) (UniProt O75469); assay: Human pregnane X receptor (PXR) activation by small molecules, qHTS assay (AID 1346985); note: % is set by controls: 0 for no effect and ±100 for the full control effect; nearly all actives have a fitted effect of over 40% in size
# In short: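 DPX-2 cells (HepG2 co-transfected with a PXR response element and a CYP3A4-promoter luciferase construct) were seeded at 2,000 per well, rested 5 hr at 37C, then exposed to DMSO-dissolved compounds for 24 hr. Activation was read as luciferase luminescence.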
# [6] = target: Nuclear receptor subfamily 1 group I member 2 (Rattus norvegicus) (UniProt Q9R1A7); assay: Rat pregnane X receptor (rPXR) activation by small molecules, qHTS assay (AID 1346983); settings: rPXR luciferase reporter cells, One-Glo luminescence, 24 h; max activation: stronger effect = higher value; note: potency is the fitted concentration of half-maximal effect; nearly all actives have a fitted effect of over 20% in size
# In short: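 Cell-based rPXR luciferase reporter assay, 2,000 cells per well, rested 5hr at 37 C before compound addition in DMSO, then 24 hr at 37 C. One-Glo reagent was added and luminescence read after 30 min at room temperature.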
# Tags give direction and shape of the fitted curve.
# Sequence of UniProt P33261 (P33261 whole entry, looked up): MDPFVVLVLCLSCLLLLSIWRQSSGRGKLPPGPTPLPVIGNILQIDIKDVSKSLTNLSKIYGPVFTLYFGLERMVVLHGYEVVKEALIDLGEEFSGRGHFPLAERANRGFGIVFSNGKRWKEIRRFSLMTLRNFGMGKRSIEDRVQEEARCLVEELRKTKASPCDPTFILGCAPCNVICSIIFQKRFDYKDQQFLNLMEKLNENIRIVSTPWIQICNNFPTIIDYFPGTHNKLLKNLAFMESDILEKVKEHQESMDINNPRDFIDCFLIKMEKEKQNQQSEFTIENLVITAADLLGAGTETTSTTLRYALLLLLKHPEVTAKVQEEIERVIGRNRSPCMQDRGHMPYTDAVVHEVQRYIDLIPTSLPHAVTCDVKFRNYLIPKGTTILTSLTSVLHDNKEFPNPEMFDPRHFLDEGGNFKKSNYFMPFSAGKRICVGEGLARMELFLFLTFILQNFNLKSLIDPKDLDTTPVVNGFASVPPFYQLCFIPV
# Sequence of UniProt O75469 (O75469 whole entry, looked up): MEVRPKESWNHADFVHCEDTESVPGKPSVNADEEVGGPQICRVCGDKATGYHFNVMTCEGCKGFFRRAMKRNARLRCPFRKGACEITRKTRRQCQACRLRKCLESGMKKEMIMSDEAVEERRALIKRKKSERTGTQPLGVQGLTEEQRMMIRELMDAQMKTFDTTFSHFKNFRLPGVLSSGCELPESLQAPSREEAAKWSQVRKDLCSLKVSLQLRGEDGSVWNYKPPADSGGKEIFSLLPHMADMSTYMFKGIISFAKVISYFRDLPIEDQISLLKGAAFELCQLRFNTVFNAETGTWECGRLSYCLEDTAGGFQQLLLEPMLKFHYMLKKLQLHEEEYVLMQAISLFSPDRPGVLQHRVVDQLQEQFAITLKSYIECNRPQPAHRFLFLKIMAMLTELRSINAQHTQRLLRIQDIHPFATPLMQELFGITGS
# Sequence of UniProt P10635 (P10635 whole entry, looked up): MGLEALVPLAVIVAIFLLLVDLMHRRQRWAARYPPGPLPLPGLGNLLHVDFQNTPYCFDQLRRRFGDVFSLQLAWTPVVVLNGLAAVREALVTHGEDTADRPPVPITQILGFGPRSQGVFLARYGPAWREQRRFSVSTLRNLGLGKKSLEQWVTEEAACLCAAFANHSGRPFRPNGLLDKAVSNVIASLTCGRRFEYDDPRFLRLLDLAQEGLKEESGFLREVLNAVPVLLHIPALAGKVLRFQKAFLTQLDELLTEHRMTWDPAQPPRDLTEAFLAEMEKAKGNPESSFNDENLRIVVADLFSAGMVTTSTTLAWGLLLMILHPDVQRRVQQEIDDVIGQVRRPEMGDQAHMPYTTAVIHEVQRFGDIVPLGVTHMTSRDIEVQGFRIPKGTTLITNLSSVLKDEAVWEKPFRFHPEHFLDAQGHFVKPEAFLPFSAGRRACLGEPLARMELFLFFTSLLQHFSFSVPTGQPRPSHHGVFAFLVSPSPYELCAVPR
# Sequence of UniProt Q9R1A7 (Q9R1A7 whole entry, looked up): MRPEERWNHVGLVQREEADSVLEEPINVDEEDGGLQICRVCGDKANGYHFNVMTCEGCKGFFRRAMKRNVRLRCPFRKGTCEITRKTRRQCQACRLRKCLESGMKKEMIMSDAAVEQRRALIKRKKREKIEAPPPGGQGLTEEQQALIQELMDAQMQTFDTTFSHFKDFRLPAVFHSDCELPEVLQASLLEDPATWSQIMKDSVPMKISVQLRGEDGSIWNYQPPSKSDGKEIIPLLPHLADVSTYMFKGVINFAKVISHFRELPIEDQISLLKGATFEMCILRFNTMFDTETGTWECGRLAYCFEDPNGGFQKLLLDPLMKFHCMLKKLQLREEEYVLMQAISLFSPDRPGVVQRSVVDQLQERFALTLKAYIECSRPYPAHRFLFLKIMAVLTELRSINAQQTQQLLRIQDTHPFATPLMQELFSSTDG
compound,measurement,setting,value
CCCCCCCCn1sc(Cl)c(Cl)c1=O,Potency,[1],"inconclusive: 30.6 µM [cytotoxic, single point]"
O=C(O)c1cccnc1,Potency,[1],"inconclusive: 27.3 µM [cytotoxic, partial curve, poor fit]"
COc1ccc(COC(C)=O)cc1,Potency,[1],inactive
same,Potency,[2],inactive
Clc1ccc(C(Cn2ccnc2)OCc2ccsc2Cl)c(Cl)c1 (stereo not drawn),Potency,[1],"inconclusive: 33.5 µM [cytotoxic, single point]"
Oc1ccc2cc(SSc3ccc4cc(O)ccc4c3)ccc2c1,Potency,[1],"inconclusive: 61.2 µM [cytotoxic, partial curve] and inconclusive: 68.6 µM [cytotoxic]"
same,Potency,[3],"inconclusive: 71.1 µM [inhibitor, partial curve] and inconclusive: 39.9 µM [inhibitor, partial curve]"
CCCCOCCOCCOC(C)=O,Potency,[1],"inconclusive: 27.3 µM [cytotoxic, single point]"
same,Potency,[2],inactive
CCCCCCCCCCCCCCCCCCNC(=O)OC1CCN(C(=O)OC[C@H](COC(=O)N(Cc2cccc[n+]2CC)C(=O)c2ccccc2OC)OC)CC1,Potency,[1],"inconclusive: 33.5 µM [cytotoxic, single point]"
SCCCCCCCCS,Potency,[1],"inconclusive: 27.3 µM [rising, partial curve, poor fit]"
Brc1ccccc1-c1ccccc1,Potency,[2],"inconclusive: 51.6 µM [activator, partial curve, poor fit]"
same,Potency,[3],active: 75.4 µM
same,Potency,[4],"inconclusive: 84.6 µM [inhibitor, single point]"
CCC(Cc1c(I)cc(I)c(N)c1I)C(=O)O (stereo not drawn),Potency,[2],"inconclusive: 33.5 µM [activator, single point]"
same,Potency,[3],"inconclusive: 13.8 µM [inhibitor, partial curve]"
same,Potency,[4],"inconclusive: 77.2 µM [inhibitor, single point] and inactive"
S=C(SSSSSSC(=S)N1CCCCC1)N1CCCCC1,activation,[2],inactive: 19.2% [at 19 µM]
same,Potency,[4],"inconclusive: 19.7 µM [inhibitor, single point]"
CN(C)CCC=C1c2ccccc2CCc2ccccc21,Potency,[2],"inconclusive: 21.7 µM [activator, partial curve]"
same,Potency,[4],"active: 7.97 µM and active: 31.7 µM and inconclusive: 6.92 µM [inhibitor, full curve, poor fit]"
CC(=O)Nc1ccc(C(=O)O)cc1,Potency,[5],inactive
same,Potency,[3],"inconclusive: 63 µM [inhibitor, partial curve, poor fit]"
CCCCc1oc2ccc(NS(C)(=O)=O)cc2c1C(=O)c1ccc(OCCCN(CCCC)CCCC)cc1,Potency,[2],"inconclusive: 4.22 µM [activator, partial curve]"
Nc1cc(Cl)c([N+](=O)[O-])cc1O,Potency,[2],active: 54 µM
O=c1n(CCO)c(=O)n(CCO)c(=O)n1CCO,Potency,[2],"inconclusive: 61.1 µM [activator, single point]"
same,Potency,[3],"inconclusive: 36 µM [inhibitor, partial curve] and inactive"
COC(=O)[C@]1(C)CCC[C@@]2(C)[C@H]1CC=C1C=C(C(C)C)CC[C@@H]12,Potency,[2],active: 17.2 µM
same,Potency,[3],"inconclusive: 79.6 µM [inhibitor, partial curve, poor fit]"
same,Potency,[4],active: 28.3 µM
CSCCC=O,Potency,[2],"inconclusive: 54.5 µM [activator, partial curve, poor fit]"
same,Potency,[3],"inconclusive: 35.6 µM [inhibitor, partial curve]"
O=c1ccc2ccccc2o1,Potency,[2],inactive
same,Potency,[6],"inconclusive: 35.5 µM [activator, single point]"
same,Potency,[5],inactive
same,Potency,[4],"inconclusive: 89.4 µM [inhibitor, single point]"
CCCCC(CC)COS(=O)(=O)O (stereo not drawn),Potency,[5],inactive
same,Potency,[3],"inconclusive: 50.2 µM [inhibitor, partial curve, poor fit]"
Brc1cc(Oc2cc(Br)c(Br)c(Br)c2Br)c(Br)c(Br)c1Br,Potency,[2],"active: 9.73 µM and inconclusive: 37.1 µM [activator, single point]"
COc1ccccc1/C=C/C=O,Potency,[2],"inconclusive: 70.4 µM [activator, single point] and inconclusive: 54.5 µM [activator, partial curve]"
same,Potency,[3],"inconclusive: 112 µM [inhibitor, single point]"
same,Potency,[4],"inconclusive: 81.8 µM [inhibitor, single point]"
CCCC(=O)c1cc(O)c(O)cc1O,Potency,[2],"inconclusive: 77 µM [activator, partial curve, poor fit]"
